Reference: the supplement of paper PMC11417369
± gives the standard deviation of the averaged measurements. This is one part of the list.

What follows are sequences tested on PfAP2-LT AP2 domain (GST-tagged) (assay: gcPBM binding intensity (ln(normalized median fluorescence intensity)); higher = stronger DNA binding).
How it was run: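 GST-fused DNA-binding domains of P. falciparum, expressed in E. coli, were applied at about 25 μg on average for 1 h to an Agilent 4 × 180k array of primer-extended double-stranded 36-bp intergenic genomic probes and negative controls. Binding intensity is the highest Masliner-normalised natural-log median intensity across replicate spots of either probe orientation, measured with Alexa488 anti-GST antibody and a 488 nm scan.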
“AATTCTCTTAATAAATAAACACAAATAAATAATAAA [GTGCAC_negctrl_site499]” was tested, and the “gcPBM binding intensity (ln)” value was 8.42 ± 0.41.
“CATACATACAAACACACACACACACCGATATATATA [CACACA_site8952]” was tested, and the “gcPBM binding intensity (ln)” value was 10.29 ± 0.092.
In the case of “CACATACAGACATACACACACATATATATTAATATA [CACACA_site546]”, the “gcPBM binding intensity (ln)” value is reported as 9.56 ± 0.41.
For “ATCAACATCTAACATTGTACATGTGATGTGTAAAAG [XGTACX_site547]”, the “gcPBM binding intensity (ln)” value was 8.98 ± 0.35.
In the case of “ATATTTGCCCAAGATAGTACATATATATATATATAT [XGTACX_site7756]”, the “gcPBM binding intensity (ln)” value is reported as 9.74 ± 0.2.
“TATATAATAAAAAAAAGTACTTGGACAATATTATTT [XGTACX_site2802]” was tested, and the “gcPBM binding intensity (ln)” value was 8.62 ± 0.45.
For “TTAATTTACATGAACTGTACATAACATTTTTTTAAA [XGTACX_site4672]”, the “gcPBM binding intensity (ln)” value was 8.38 ± 0.45.
For “ATCAAAATATTTATATGTACATATTAAAAATATAGA [XGTACX_site725]”, the “gcPBM binding intensity (ln)” value was 8.6 ± 0.38.
“TCAGTAATACTTGAATGTACTTATATTGTTTGTTTG [XGTACX_site6449]” was tested, and the “gcPBM binding intensity (ln)” value was 8.87 ± 0.49.
“CCTATATTAAAACAAGCACACAATCGCATAATATCC [CACACA_site9052]” was tested, and the “gcPBM binding intensity (ln)” value was 9.15 ± 0.26.
With “AAGGAAATATAATATACACACATAAGTGTACTTATA [CACACA_site4030]” the “gcPBM binding intensity (ln)” value was 8.94 ± 0.4.
With “GAAAAATTAAAAATAACACACACATATATATATTTA [CACACA_site8896]” the “gcPBM binding intensity (ln)” value was 9.21 ± 0.28.
With “TAATAAAGTGAATAATGTACATTTTATTTATTATAT [XGTACX_site6614]” the “gcPBM binding intensity (ln)” value was 8.62 ± 0.45.
“ATTATATATCCCTATTCACACATGTATTATATAAAT [CACACA_site5486]” was tested, and the “gcPBM binding intensity (ln)” value was 8.91 ± 0.47.
With “CTAATATCTGTATGCACACACAATAAATACATATTT [CACACA_site5797]” the “gcPBM binding intensity (ln)” value was 9.25 ± 0.34.
With “ATAAATAAATAAATAAATAAATAAATAAATATATAT [CACACA_negctrl_site1728]” the “gcPBM binding intensity (ln)” value was 8.74 ± 0.49.
For TCTTTTTCTTGACGAGTGCAAAAATTGTGTTTGAAA, the “gcPBM binding intensity (ln)” value was 8.48 ± 0.35.
With “ATTTATTTTATATGTTGTACAAACATTTTAAAACAT [XGTACX_site6919]” the “gcPBM binding intensity (ln)” value was 8.69 ± 0.43.
For “AATGCCTTGTTGAGGTGTACTGAATGTTATTTTAAT [XGTACX_site3255]”, the “gcPBM binding intensity (ln)” value was 8.68 ± 0.43.
In the case of “TTTTTTTAAAGAATTATCATAAAATGATTGCATCAT [XGTACX_negctrl_site141]”, the “gcPBM binding intensity (ln)” value is reported as 8.3 ± 0.53.
“TTAACATATTTGTTAGTGCATTTTGATATTACACAT [GTGCAC_site9978]” was tested, and the “gcPBM binding intensity (ln)” value was 8.88 ± 0.48.
“AAAAAAATTAAATGTACACACACCTTAAACAATGTC [CACACA_site1855]” was tested, and the “gcPBM binding intensity (ln)” value was 9.16 ± 0.3.
In the case of TTATTCTAGTAGTGTGTGCGCATGGACAATGCAATA, the “gcPBM binding intensity (ln)” value is reported as 9.27 ± 0.33.
In the case of “ATACATATAATATATGCATGTACCAATCAAATATAT [TGCATGCA_site192]”, the “gcPBM binding intensity (ln)” value is reported as 8.89 ± 0.5.
For “TATATATCGTTATATACACACATGTATATAAAAAAT [CACACA_site7501]”, the “gcPBM binding intensity (ln)” value was 9.04 ± 0.4.
“TAATTTTTTTTTATGATACACACTTGGATAATTAAA [CACACA_site562]” was tested, and the “gcPBM binding intensity (ln)” value was 8.37 ± 0.33.
For “TTATTATATATTTTATTTATTAATAGTATATATTAT [TGCATGCA_negctrl_site155]”, the “gcPBM binding intensity (ln)” value was 8.46 ± 0.54.
“ATATTTTATTTATATACACACACATATATATATTAT [CACACA_site8177]” was tested, and the “gcPBM binding intensity (ln)” value was 9.43 ± 0.35.
“TTCTTTATATACAAACCAAAATATTATGTATAATAA [CACACA_negctrl_site15]” was tested, and the “gcPBM binding intensity (ln)” value was 8.29 ± 0.33.
With “CTTTATATAAAATAAAGTACATAAATTATGATATAT [XGTACX_site3699]” the “gcPBM binding intensity (ln)” value was 8.51 ± 0.42.
In the case of “TGTAATGTTTACAACACACAAATTAGAAATACAAAA [CACACA_site6924]”, the “gcPBM binding intensity (ln)” value is reported as 8.8 ± 0.44.
In the case of “AAGGAAGATATATACACACATACAAATATATATATA [CACACA_site2181]”, the “gcPBM binding intensity (ln)” value is reported as 9.39 ± 0.32.
With “ACATATTTAAAAACATGTACAAATATATTTATAATT [XGTACX_site661]” the “gcPBM binding intensity (ln)” value was 8.71 ± 0.42.
“TTGTGTTTTATTATTTTATTATTACTATTATAATGT [GTGCAC_negctrl_site484]” was tested, and the “gcPBM binding intensity (ln)” value was 8.9 ± 0.46.
“ATAAAACATAAATACATACACACATAATATATATTA [CACACA_site110]” was tested, and the “gcPBM binding intensity (ln)” value was 9.26 ± 0.42.
In the case of “TAAAAATGGGTATGTACACACTTTATTTTTAATACA [CACACA_site5404]”, the “gcPBM binding intensity (ln)” value is reported as 8.76 ± 0.36.
In the case of “TATAAACATAAATATACACACAAACATATATGTATT [CACACA_site8324]”, the “gcPBM binding intensity (ln)” value is reported as 9.11 ± 0.35.
With “CGTTTCCCCAATGGTTGTACAATATATATATATATA [XGTACX_site8641]” the “gcPBM binding intensity (ln)” value was 9.33 ± 0.28.
“AGACATATAATATATACACACATATATATATATATA [CACACA_site1066]” was tested, and the “gcPBM binding intensity (ln)” value was 9.93 ± 0.085.
For “TTATTTATAATGTTGTGTACATATATGAATATACCA [XGTACX_site3111]”, the “gcPBM binding intensity (ln)” value was 8.72 ± 0.41.
With “AAGAAAAAATAAAGCACACAAATATTTTAAAAACAC [CACACA_site3325]” the “gcPBM binding intensity (ln)” value was 9.06 ± 0.53.
GATATATATACATGTGTGCACCATGCAACTTGTTTT was tested, and the “gcPBM binding intensity (ln)” value was 9.28 ± 0.46.
For “TTTTTTCAATTGGAAATTATTTTACAATGAAGGGTA [XGTACX_negctrl_site469]”, the “gcPBM binding intensity (ln)” value was 8.19 ± 0.35.
“TATTTTACGTATTGTTGTACTTGAAACAAATATACA [XGTACX_site8778]” was tested, and the “gcPBM binding intensity (ln)” value was 8.6 ± 0.3.
